# Source: the supplement of paper PMC8728848
# This is one part of the list.
# B1: Gal 3 (Homo sapiens), P17931 (protein)
# chain: MADNFSLHDALSGSGNPNPQGWPGAWGNQPAGAGGYPGASYPGAYPGQAPPGAYPGQAPPGAYHGAPGAYPGAPAPGVYPGPPSGPGAYPSSGQPSAPGAYPATGPYGAPAGPLIVPYNLPLPGGVVPRMLITILGTVKPNANILDFQRGNDVAFHFNPRFNENNRRVIVCNTLLDNNWGREERQSVFPFESGKPFKIQVLVEPDHFKVAVNDAHLLQYNHRVKKLNEISKLGISGDIDLTSASYTMI
# Columns and labels:
# Assay in all cases: glycan array binding signal (z-score within array); higher = stronger binding
# Settings in all cases: glycan notation: IUPAC condensed, linker removed; mutation: K176L
# [1] = biological target: Fuc(a1-3)[Gal3S(b1-4)]GlcNAc
# How it was run: (§1)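 The Consortium for Functional Glycomics database supplied 3228 glycan arrays, of which those lacking an available protein sequence were dropped. The binding signal, a within-array Z-score, was averaged across arrays of the same protein sequence and across linkers. Negative scores can be read as non-binding.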
# [2] = biological target: Fuc(a1-3)[Gal3S(b1-4)]GlcNAc6S
# How it was run: as §1
# [3] = biological target: Fuc(a1-3)[GalNAc(b1-4)]GlcNAc
# How it was run: as §1
# [4] = biological target: Fuc(a1-4)GlcNAc
# How it was run: as §1
# [5] = biological target: Fuc(b1-3)GlcNAc
# How it was run: as §1
# [6] = biological target: Gal(a1-2)Gal
# How it was run: as §1
# [7] = biological target: Gal(a1-3)Gal
# How it was run: as §1
# [8] = biological target: Gal(a1-3)Gal(b1-3)GlcNAc
# How it was run: as §1
# [9] = biological target: Gal(a1-3)Gal(b1-3)GlcNAc(b1-2)Man(a1-3)[Gal(a1-3)Gal(b1-3)GlcNAc(b1-2)Man(a1-6)]Man(b1-4)GlcNAc(b1-4)GlcNAc
# How it was run: as §1
# [10] = biological target: Gal(a1-3)Gal(b1-3)[Fuc(a1-4)]GlcNAc(b1-2)Man(a1-3)[Gal(a1-3)Gal(b1-3)[Fuc(a1-4)]GlcNAc(b1-2)Man(a1-6)]Man(b1-4)GlcNAc(b1-4)GlcNAc
# How it was run: as §1
# [11] = biological target: Gal(a1-3)Gal(b1-4)Glc
# How it was run: as §1
# [12] = biological target: Gal(a1-3)Gal(b1-4)GlcNAc
# How it was run: as §1
# [13] = biological target: Gal(a1-3)Gal(b1-4)GlcNAc(b1-3)GalNAc
# How it was run: as §1
# [14] = biological target: Gal(a1-3)Gal(b1-4)[Fuc(a1-3)]GlcNAc
# How it was run: as §1
# [15] = biological target: Gal(a1-3)Gal(b1-4)[Fuc(a1-3)]GlcNAc(b1-2)Man(a1-3)[Gal(a1-3)Gal(b1-4)[Fuc(a1-3)]GlcNAc(b1-2)Man(a1-6)]Man(b1-4)GlcNAc(b1-4)GlcNAc
# How it was run: as §1
# [16] = biological target: Gal(a1-3)GalNAc
# How it was run: as §1
# [17] = biological target: Gal(a1-3)[Gal(a1-4)]Gal(b1-4)GlcNAc
# How it was run: as §1
# [18] = biological target: Gal(a1-4)Gal(b1-3)GlcNAc(b1-2)Man(a1-3)[Gal(a1-4)Gal(b1-3)GlcNAc(b1-2)Man(a1-6)]Man(b1-4)GlcNAc(b1-4)GlcNAc
# How it was run: as §1
# [19] = biological target: Gal(a1-4)Gal(b1-4)Glc
# How it was run: as §1
# [20] = biological target: Gal(a1-4)Gal(b1-4)GlcNAc
# How it was run: as §1
# [21] = biological target: Gal(a1-4)Gal(b1-4)GlcNAc(b1-2)Man(a1-3)[Gal(a1-4)Gal(b1-4)GlcNAc(b1-2)Man(a1-6)]Man(b1-4)GlcNAc(b1-4)GlcNAc
# How it was run: as §1
# [22] = biological target: Gal(a1-4)Gal(b1-4)GlcNAc(b1-3)Gal(b1-4)Glc
# How it was run: as §1
# [23] = biological target: Gal(a1-4)GlcNAc
# How it was run: as §1
# [24] = biological target: Gal(a1-6)Glc
# How it was run: as §1
# [25] = biological target: Gal(b1-2)Gal
# How it was run: as §1
# [26] = biological target: Gal(b1-3)Gal
# How it was run: as §1
# [27] = biological target: Gal(b1-3)Gal(b1-4)GlcNAc
# How it was run: as §1
# [28] = biological target: Gal(b1-3)Gal(b1-4)GlcNAc(b1-2)Man(a1-3)[Gal(b1-3)Gal(b1-4)GlcNAc(b1-2)Man(a1-6)]Man(b1-4)GlcNAc(b1-4)GlcNAc
# How it was run: as §1
# [29] = biological target: Gal(b1-3)GalNAc
# How it was run: as §1
# [30] = biological target: Gal(b1-3)GalNAc(a1-3)[Fuc(a1-2)]Gal(b1-4)Glc
# How it was run: as §1
# [31] = biological target: Gal(b1-3)GalNAc(a1-3)[Fuc(a1-2)]Gal(b1-4)GlcNAc
# How it was run: as §1
# [32] = biological target: Gal(b1-3)GalNAc(b1-3)Gal(a1-4)Gal(b1-4)Glc
# How it was run: as §1
# [33] = biological target: Gal(b1-3)GalNAc(b1-4)Gal(b1-4)Glc
# How it was run: as §1
# [34] = biological target: Gal(b1-3)GalNAc(b1-4)[Neu5Ac(a2-3)]Gal(b1-4)Glc
# How it was run: as §1
# [35] = biological target: Gal(b1-3)GlcNAc
# How it was run: as §1
# [36] = biological target: Gal(b1-3)GlcNAc(a1-6)Gal(b1-4)GlcNAc
# How it was run: as §1
# [37] = biological target: Gal(b1-3)GlcNAc(b1-2)Man(a1-3)[Gal(b1-3)GlcNAc(b1-2)Man(a1-6)]Man(b1-4)GlcNAc(b1-4)GlcNAc
# How it was run: as §1
# [38] = biological target: Gal(b1-3)GlcNAc(b1-2)Man(a1-3)[Gal(b1-3)GlcNAc(b1-2)Man(a1-6)]Man(b1-4)GlcNAc(b1-4)[Fuc(a1-6)]GlcNAc
# How it was run: as §1
# [39] = biological target: Gal(b1-3)GlcNAc(b1-3)Gal(b1-3)GlcNAc
# How it was run: as §1
# [40] = biological target: Gal(b1-3)GlcNAc(b1-3)Gal(b1-4)Glc
# How it was run: as §1
# [41] = biological target: Gal(b1-3)GlcNAc(b1-3)Gal(b1-4)GlcNAc
# How it was run: as §1
# [42] = biological target: Gal(b1-3)GlcNAc(b1-3)Gal(b1-4)GlcNAc(b1-6)[Gal(b1-3)GlcNAc(b1-3)]Gal(b1-4)Glc
# How it was run: as §1
# [43] = biological target: Gal(b1-3)GlcNAc(b1-3)Gal(b1-4)[Fuc(a1-3)]GlcNAc(b1-6)[Gal(b1-3)GlcNAc(b1-3)]Gal(b1-4)Glc
# How it was run: as §1
# [44] = biological target: Gal(b1-3)GlcNAc(b1-3)GalNAc
# How it was run: as §1
# [45] = biological target: Gal(b1-3)GlcNAc(b1-6)Gal(b1-4)GlcNAc
# How it was run: as §1
# [46] = biological target: Gal(b1-3)[Fuc(a1-4)]GlcNAc
# How it was run: as §1
# [47] = biological target: Gal(b1-3)[Fuc(a1-4)]GlcNAc(b1-2)Man(a1-3)[Gal(b1-3)[Fuc(a1-4)]GlcNAc(b1-2)Man(a1-6)]Man(b1-4)GlcNAc(b1-4)GlcNAc
# How it was run: as §1
# [48] = biological target: Gal(b1-3)[Fuc(a1-4)]GlcNAc(b1-2)Man(a1-3)[Gal(b1-3)[Fuc(a1-4)]GlcNAc(b1-2)Man(a1-6)]Man(b1-4)GlcNAc(b1-4)[Fuc(a1-6)]GlcNAc
# How it was run: as §1
# [49] = biological target: Gal(b1-3)[Fuc(a1-4)]GlcNAc(b1-3)Gal(b1-3)[Fuc(a1-4)]GlcNAc
# How it was run: as §1
# [50] = biological target: Gal(b1-3)[Fuc(a1-4)]GlcNAc(b1-3)Gal(b1-4)GlcNAc
# How it was run: as §1
# [51] = biological target: Gal(b1-3)[Fuc(a1-4)]GlcNAc(b1-3)Gal(b1-4)[Fuc(a1-3)]GlcNAc
# How it was run: as §1
# [52] = biological target: Gal(b1-3)[GlcNAc(b1-6)]GalNAc
# How it was run: as §1
# [53] = biological target: Gal(b1-3)[Neu5Ac(a2-6)]GalNAc
# How it was run: as §1
# [54] = biological target: Gal(b1-3)[Neu5Ac(a2-6)]GlcNAc(b1-6)Gal(b1-4)Glc
# How it was run: as §1
# [55] = biological target: Gal(b1-3)[Neu5Ac(b2-6)]GalNAc
# How it was run: as §1
# [56] = biological target: Gal(b1-4)GalNAc(a1-3)[Fuc(a1-2)]Gal(b1-4)GlcNAc
# How it was run: as §1
# [57] = biological target: Gal(b1-4)GalNAc(b1-3)[Fuc(a1-2)]Gal(b1-4)GlcNAc
# How it was run: as §1
# [58] = biological target: Gal(b1-4)Glc
# How it was run: as §1
# [59] = biological target: Gal(b1-4)Glc6S
# How it was run: as §1
# [60] = biological target: Gal(b1-4)GlcNAc
# How it was run: as §1
binder,measurement,setting,value
B1,glycan array binding signal (z-score),[1],-0.265
same,glycan array binding signal (z-score),[2],-0.258
same,glycan array binding signal (z-score),[3],-0.262
same,glycan array binding signal (z-score),[4],-0.27
same,glycan array binding signal (z-score),[5],-0.262
same,glycan array binding signal (z-score),[6],-0.272
same,glycan array binding signal (z-score),[7],-0.266
same,glycan array binding signal (z-score),[8],-0.266
same,glycan array binding signal (z-score),[9],-0.266
same,glycan array binding signal (z-score),[10],-0.262
same,glycan array binding signal (z-score),[11],-0.264
same,glycan array binding signal (z-score),[12],-0.272
same,glycan array binding signal (z-score),[13],-0.249
same,glycan array binding signal (z-score),[14],-0.271
same,glycan array binding signal (z-score),[15],-0.269
same,glycan array binding signal (z-score),[16],-0.267
same,glycan array binding signal (z-score),[17],-0.265
same,glycan array binding signal (z-score),[18],-0.258
same,glycan array binding signal (z-score),[19],-0.267
same,glycan array binding signal (z-score),[20],-0.268
same,glycan array binding signal (z-score),[21],-0.268
same,glycan array binding signal (z-score),[22],-0.271
same,glycan array binding signal (z-score),[23],-0.264
same,glycan array binding signal (z-score),[24],-0.269
same,glycan array binding signal (z-score),[25],-0.263
same,glycan array binding signal (z-score),[26],-0.269
same,glycan array binding signal (z-score),[27],-0.269
same,glycan array binding signal (z-score),[28],4.03
same,glycan array binding signal (z-score),[29],-0.269
same,glycan array binding signal (z-score),[30],-0.268
same,glycan array binding signal (z-score),[31],0.16
same,glycan array binding signal (z-score),[32],-0.262
same,glycan array binding signal (z-score),[33],-0.269
same,glycan array binding signal (z-score),[34],-0.27
same,glycan array binding signal (z-score),[35],-0.267
same,glycan array binding signal (z-score),[36],-0.265
same,glycan array binding signal (z-score),[37],-0.252
same,glycan array binding signal (z-score),[38],-0.271
same,glycan array binding signal (z-score),[39],0.57
same,glycan array binding signal (z-score),[40],0.004
same,glycan array binding signal (z-score),[41],0.409
same,glycan array binding signal (z-score),[42],0.682
same,glycan array binding signal (z-score),[43],-0.203
same,glycan array binding signal (z-score),[44],-0.263
same,glycan array binding signal (z-score),[45],-0.267
same,glycan array binding signal (z-score),[46],-0.27
same,glycan array binding signal (z-score),[47],-0.25
same,glycan array binding signal (z-score),[48],-0.255
same,glycan array binding signal (z-score),[49],-0.263
same,glycan array binding signal (z-score),[50],-0.268
same,glycan array binding signal (z-score),[51],-0.273
same,glycan array binding signal (z-score),[52],-0.27
same,glycan array binding signal (z-score),[53],-0.268
same,glycan array binding signal (z-score),[54],-0.259
same,glycan array binding signal (z-score),[55],-0.268
same,glycan array binding signal (z-score),[56],1.11
same,glycan array binding signal (z-score),[57],-0.267
same,glycan array binding signal (z-score),[58],-0.269
same,glycan array binding signal (z-score),[59],-0.269
same,glycan array binding signal (z-score),[60],-0.27
